Laboratory results: the supplement of paper PMC6206098
± gives the uncertainty stated by the source. The sequences are guide strands of siRNAs; only the seed at positions 2 to 7 varies.

Legend:
[1] = tested on: 3LL; assay: cell viability relative to siNT1 control; higher = less toxic; details: concentration: 10 nM; 96 h; Mus musculus;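 also: Luminescence-based viability of cells reverse transfected in 384-well plates with lipid-complexed siRNAs built on a non-toxic 19mer backbone whose passenger strand carries 2′-O-methyl groups at positions 1 and 2, triplicates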
[2] = tested on: H460; assay: cell viability relative to lipid-only control; HeyA8 human ovarian and H460 human lung cancer; M565 mouse liver and 3LL mouse lung cancer; siNT1 is a non-toxic control siRNA; higher = less toxic; details: concentration: 10 nM; 96 h; Homo sapiens
Protocol: (§1)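 Arrayed screen of 4096 siRNA duplexes, each carrying one of all possible 6mer seeds at guide-strand positions 2-7 in a fixed neutral 19mer scaffold (constant flanks: U at position 1, then ACAUGUAAACCA, plus a 3' AA overhang). The passenger strand is 2'-O-methylated at positions 1-2 so only the guide strand loads into RISC. Duplexes were reverse-transfected at 10 nM with RNAiMAX in triplicate in 384-well plates; viability was read by CellTiter-Glo ATP content 96 h after transfection. Values are % viability normalised to lipid-only wells (HeyA8, H460, M565) or to siNT1 (3LL).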

[3] = tested on: HeyA8; assay: as above; details: concentration: 10 nM; 96 h; Homo sapiens
Protocol: as §1

[4] = tested on: M565; assay: as above; details: concentration: 10 nM; 96 h; Mus musculus
Protocol: as §1
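For cell viability relative to lipid-only control in this document: reverse lipid transfection in 384-well plates, in triplicate, of duplexes on a non-toxic 19mer backbone with passenger strand 2′-O-methylated at positions 1 and 2, luminescence viability read-out.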

Row | Sequence | cell viability [1] [%] | cell viability [2] [%] | cell viability [3] [%] | cell viability [4] [%]
1 | UCUGGGAACAUGUAAACCAAA | 61.7 ± 21 | 22.8 ± 2.2 | 6.07 ± 0.83 | 31.2 ± 7
2 | UUGGGACACAUGUAAACCAAA | 29.4 ± 9.5 | 64.4 ± 4.3 | 47.1 ± 7.1 | 19.5 ± 1.8
3 | UCGCCCUACAUGUAAACCAAA | 57.1 ± 12 | 68.2 ± 12 | 60.2 ± 2.1 | 37.1 ± 3.2
4 | UAGCCGGACAUGUAAACCAAA | 78.7 ± 8.4 | 58.2 ± 12 | 28.1 ± 4.2 | 18 ± 4.9
5 | UCUAUUAACAUGUAAACCAAA | 87.7 ± 10 | 69 ± 11 | 78.2 ± 1.6 | 69.5 ± 18
6 | UUUAUCGACAUGUAAACCAAA | 93.9 ± 11 | 83.7 ± 17 | 95.9 ± 4.9 | 77.6 ± 19
7 | UGUUGUUACAUGUAAACCAAA | 70.1 ± 16 | 69.5 ± 8.8 | 9.56 ± 2 | 33.9 ± 5.7
8 | UCGCCUAACAUGUAAACCAAA | 94.8 ± 10 | 83.7 ± 6.1 | 94.4 ± 1.5 | 73.2 ± 6.1
9 | UGGGAUUACAUGUAAACCAAA | 25.8 ± 7.1 | 61.5 ± 5.2 | 30.1 ± 1.1 | 25.6 ± 5.6
10 | UAUCGGUACAUGUAAACCAAA | 72.3 ± 2.5 | 99.1 ± 12 | 80.5 ± 10 | 56.5 ± 12
11 | UGCGCGCACAUGUAAACCAAA | 68.5 ± 13 | 32.8 ± 0.7 | 11 ± 4 | 58.9 ± 10
12 | UGACCCUACAUGUAAACCAAA | 15.6 ± 3.4 | 26.89 ± 0.15 | 31 ± 5.7 | 15.6 ± 2.1
13 | UGGCAGGACAUGUAAACCAAA | 12.8 ± 1.2 | 13.5 ± 1.9 | 3.95 ± 0.68 | 16 ± 1.6
14 | UUAAACGACAUGUAAACCAAA | 91.2 ± 7.6 | 66.3 ± 6 | 95.4 ± 7.1 | 105 ± 6.9
15 | UGCCAGGACAUGUAAACCAAA | 50 ± 4.6 | 20.4 ± 2.2 | 33.4 ± 2.7 | 26.9 ± 4
16 | UUUGAGAACAUGUAAACCAAA | 105 ± 4.1 | 78.5 ± 6.6 | 95.7 ± 3.4 | 96.4 ± 7.5
17 | UUCCCGUACAUGUAAACCAAA | 76.1 ± 3.3 | 65.2 ± 8.2 | 59.7 ± 2.2 | 99.4 ± 16
18 | UUGGCGCACAUGUAAACCAAA | 41.1 ± 1.5 | 92.7 ± 8.6 | 79.7 ± 11 | 69.1 ± 6.4
19 | UUUAUAUACAUGUAAACCAAA | 90.2 ± 5.8 | 76 ± 20 | 94.6 ± 9.8 | 80 ± 1.8
20 | UAAAACAACAUGUAAACCAAA | 101 ± 13 | 68.9 ± 13 | 92.8 ± 7.2 | 111 ± 26
21 | UCAAGGAACAUGUAAACCAAA | 89.9 ± 21 | 41.8 ± 1.5 | 87.3 ± 10 | 50.7 ± 8.2
22 | UCAUCGGACAUGUAAACCAAA | 65 ± 12 | 43.3 ± 2.5 | 50.1 ± 5.5 | 40.3 ± 6.2
23 | UCGGGCAACAUGUAAACCAAA | 65.5 ± 15 | 58.3 ± 11 | 33.1 ± 7.1 | 32.6 ± 9.4
24 | UCGAGUGACAUGUAAACCAAA | 90.6 ± 22 | 82.5 ± 16 | 85.1 ± 1.6 | 63.3 ± 0.64

Row | Sequence | cell viability [1] [%] | cell viability [2] [%] | cell viability [3] [%] | cell viability [4] [%]
25 | UCCGGUGACAUGUAAACCAAA | 103 ± 29 | 56.1 ± 9.1 | 74.5 ± 16 | 49.7 ± 6.7
26 | UGUCGGCACAUGUAAACCAAA | 49.9 ± 5.9 | 60 ± 4.9 | 32.8 ± 2 | 19.3 ± 2.7
27 | UCCGUAGACAUGUAAACCAAA | 106 ± 17 | 59 ± 4.1 | 77.8 ± 7.5 | 69.7 ± 6.8
28 | UACUGCGACAUGUAAACCAAA | 92.7 ± 13 | 102 ± 10 | 87.2 ± 7.2 | 68.8 ± 5.5
29 | UCAUCAUACAUGUAAACCAAA | 83.2 ± 14 | 51.7 ± 11 | 42.1 ± 4.8 | 45.3 ± 8.7
30 | UAUCCGGACAUGUAAACCAAA | 95.8 ± 7.4 | 99.7 ± 6.7 | 85 ± 13 | 103 ± 7.7
31 | UCUUGCAACAUGUAAACCAAA | 94.9 ± 13 | 68.1 ± 9.5 | 81.2 ± 5.6 | 68.7 ± 12
32 | UUACUAUACAUGUAAACCAAA | 85.8 ± 5 | 70.2 ± 0.83 | 79 ± 3.4 | 70.6 ± 5.3
33 | UCACCCUACAUGUAAACCAAA | 48.1 ± 6 | 28.9 ± 1.6 | 65.8 ± 10 | 61.5 ± 14
34 | UAUGACCACAUGUAAACCAAA | 43 ± 3.8 | 54.7 ± 15 | 48.3 ± 6.6 | 44.9 ± 5.6
35 | UCAUCUUACAUGUAAACCAAA | 83.4 ± 14 | 39.3 ± 5.6 | 66.9 ± 4.4 | 65.3 ± 6.9
36 | UUUUCAUACAUGUAAACCAAA | 103 ± 6 | 82.3 ± 21 | 71.7 ± 7.7 | 96.7 ± 17
37 | UCAAGGGACAUGUAAACCAAA | 76 ± 21 | 42.9 ± 0.72 | 60.3 ± 7.3 | 46.5 ± 7.8
38 | UAAGAUGACAUGUAAACCAAA | 80.7 ± 2.2 | 71.9 ± 15 | 85.9 ± 17 | 84 ± 8.1
39 | UGAAAACACAUGUAAACCAAA | 91.2 ± 18 | 80.4 ± 8.9 | 61.6 ± 6 | 48.2 ± 12
40 | UGAACUGACAUGUAAACCAAA | 83 ± 16 | 72.5 ± 11 | 82.8 ± 2.3 | 27.7 ± 1.1
41 | UCAGUUAACAUGUAAACCAAA | 96.8 ± 20 | 66.3 ± 1.2 | 93.8 ± 14 | 67.6 ± 4
42 | UUUUACAACAUGUAAACCAAA | 91.2 ± 3.8 | 65.2 ± 1.6 | 98.3 ± 9.2 | 91.5 ± 7.8
43 | UGCAAAGACAUGUAAACCAAA | 84.1 ± 5.4 | 59.2 ± 5.8 | 79.2 ± 7 | 87.5 ± 1
44 | UCAUGAAACAUGUAAACCAAA | 85.5 ± 14 | 59.7 ± 7.8 | 79.3 ± 4.6 | 60.7 ± 12
45 | UGCCCCCACAUGUAAACCAAA | 24.2 ± 0.97 | 45.7 ± 4.2 | 41.9 ± 1.4 | 42.1 ± 2
46 | UCACCAUACAUGUAAACCAAA | 86.1 ± 15 | 45 ± 3.1 | 81.7 ± 7 | 49.6 ± 10
47 | UUCCUUAACAUGUAAACCAAA | 106 ± 27 | 79.9 ± 12 | 91.4 ± 12 | 94.7 ± 13
48 | UAUGGUGACAUGUAAACCAAA | 95 ± 6.9 | 88 ± 8.9 | 93.9 ± 9.2 | 87 ± 11
